The campaign covered roughly 390,000 compounds. About 17,000 (4.4%) were called active. Inconclusive results, whose numbers are uncertain, are shown with a selection of clear calls. Calls follow the shape of the dose curve; as a rule, active = well fitted inhibition curve with a large enough effect; inconclusive = small, poorly fitted or top-dose-only effect; inactive = no such curve, though single readings can be large or run the other way. Potencies beside an inconclusive call are fits to weak or partial responses and may not hold up.
Molecular target: Lysine-specific demethylase 4A (Homo sapiens) (UniProt O75164)
Assay: qHTS Assay for Inhibitors of JMJD2A-Tudor Domain; also: nearly all actives have a fitted effect of over 50% in size
Settings: AlphaScreen JMJD2A-Tudor / H3K4me3 peptide binding; series mostly up to 114 µM
Potency is read from the fitted curve at half-maximal effect; tags tell the direction and shape of the fitted curve.

UniProt O75164, sequence (O75164 whole entry, looked up, the tested form may be a part): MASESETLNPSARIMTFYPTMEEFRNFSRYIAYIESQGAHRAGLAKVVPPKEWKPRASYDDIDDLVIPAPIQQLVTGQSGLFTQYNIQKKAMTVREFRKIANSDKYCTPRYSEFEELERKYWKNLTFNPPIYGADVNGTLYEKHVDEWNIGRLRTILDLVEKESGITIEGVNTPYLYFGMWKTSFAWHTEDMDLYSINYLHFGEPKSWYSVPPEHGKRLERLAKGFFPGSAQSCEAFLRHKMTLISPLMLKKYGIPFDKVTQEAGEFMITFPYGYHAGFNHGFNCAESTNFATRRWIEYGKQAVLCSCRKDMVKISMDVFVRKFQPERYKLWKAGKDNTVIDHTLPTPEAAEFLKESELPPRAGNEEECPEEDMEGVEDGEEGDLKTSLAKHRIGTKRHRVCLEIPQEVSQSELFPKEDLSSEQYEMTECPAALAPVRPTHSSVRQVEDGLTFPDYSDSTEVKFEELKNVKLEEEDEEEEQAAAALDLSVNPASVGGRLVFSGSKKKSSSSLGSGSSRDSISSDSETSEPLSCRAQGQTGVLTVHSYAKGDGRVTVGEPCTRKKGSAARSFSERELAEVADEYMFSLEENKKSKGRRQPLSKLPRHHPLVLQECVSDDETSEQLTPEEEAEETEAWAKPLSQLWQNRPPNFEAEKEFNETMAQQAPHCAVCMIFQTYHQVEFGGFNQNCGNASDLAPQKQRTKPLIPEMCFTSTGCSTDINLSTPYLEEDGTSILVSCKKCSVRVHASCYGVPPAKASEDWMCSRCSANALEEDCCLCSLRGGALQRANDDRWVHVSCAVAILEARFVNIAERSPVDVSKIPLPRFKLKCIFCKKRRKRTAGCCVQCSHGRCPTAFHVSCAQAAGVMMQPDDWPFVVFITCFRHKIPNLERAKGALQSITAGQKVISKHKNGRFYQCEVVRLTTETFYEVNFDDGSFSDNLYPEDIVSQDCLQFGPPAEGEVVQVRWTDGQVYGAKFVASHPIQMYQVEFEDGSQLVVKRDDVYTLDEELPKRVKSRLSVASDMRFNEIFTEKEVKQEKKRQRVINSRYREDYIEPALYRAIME

Question: How did the Potency turn out when `Clc1ccc(OCCOCCNCc2ccccc2)cc1Cl` was run?
Answer: active: 25.1 µM

Question: Which Potency does the source give for `Fc1ccc(Br)cc1C1C=C(c2cccnc2)Nc2ncnn21` (stereo not drawn) here?
Answer: inconclusive: 28.2 µM [inhibitor, partial curve]

Question: How did the Potency turn out when `COCCN(C(=O)CSc1nc2ccccc2s1)c1c(N)n(Cc2ccccc2)c(=O)[nH]c1=O` was run?
Answer: inconclusive: 89.1 µM [inhibitor, partial curve]

Question: `Nc1nnc(CC(=O)N/N=C\c2cc([N+](=O)[O-])ccc2O)s1` was tested. Which Potency did it give?
Answer: inconclusive: 63.1 µM [inhibitor, single point]

Question: How did the Potency turn out when `O=S(=O)(c1ccc(=S)[nH]c1)N1CCCC1` was run?
Answer: inconclusive: 2.51 µM [inhibitor, single point]

Question: For `COc1ccc(-c2ccc3c(c2)S(=O)(=O)c2cccc(C(=O)NCCOc4ccccc4)c2C3=O)cc1OC`, which Potency is on record?
Answer: inconclusive: 39.8 µM [inhibitor, single point]

Question: How did the Potency turn out when `Cc1ccc(-c2csc(NC(=O)C3=COCCO3)n2)cc1C` was run?
Answer: inconclusive: 50.1 µM [inhibitor, partial curve]

Question: Which Potency does the source give for `O=C(C1CCCN(S(=O)(=O)c2cccc3nsnc23)C1)N1CCN(c2ccccc2F)CC1` (stereo not drawn) here?
Answer: inconclusive: 70.8 µM [inhibitor, partial curve, poor fit]

Question: For `O=S(=O)(NCCc1c[nH]c2ccccc12)c1ccc(F)cc1`, which Potency is on record?
Answer: inconclusive: 31.6 µM [inhibitor, partial curve]

Question: For `O=C(CCC1CCCN(C(=O)c2ccc3[nH]ccc3c2)C1)N1CCN(c2ccccn2)CC1` (stereo not drawn), which Potency is on record?
Answer: inactive

Question: `CC(C)(C)NC(=O)C(Cc1ccccc1)N1C(=O)c2ccccc2C1=O` (stereo not drawn) was tested. Which Potency did it give?
Answer: inactive

Question: For `O=C(NC1CCN(S(=O)(=O)c2ccc(F)cc2)CC1)C1CCCCC1`, which Potency is on record?
Answer: inactive

Question: `Cc1cccc(N2C(N)=NC(N)=NC23CCCCC3)c1` was tested. Which Potency did it give?
Answer: inconclusive: 3.98 µM [inhibitor, single point]

Question: Which Potency does the source give for `CCCS(=O)(=O)N1CCN(Cc2ccncc2)CC1` here?
Answer: active: 20 µM

Question: For `Cc1ccc(C(=O)N/C(=C\c2ccc(-c3ccccc3[N+](=O)[O-])o2)C(=O)NCCCN(C)C)cc1`, which Potency is on record?
Answer: inconclusive: 63.1 µM [inhibitor, single point]

Question: `CC(=O)/C(=N\Nc1ccccc1)Sc1nnc(-c2ccccc2)n1-c1ccccc1` was tested. Which Potency did it give?
Answer: active: 31.6 µM

Question: `COc1ccc(CNC2CCCCC2C)c(OC)c1` (stereo not drawn) was tested. Which Potency did it give?
Answer: active: 2 µM

Question: Which Potency does the source give for `CCCCC1=CC2=CC(=O)C(C)(OC(=O)CC)C(=O)C2=CN1CCc1ccc(Br)cc1` (stereo not drawn) here?
Answer: inconclusive: 56.2 µM [inhibitor, partial curve, poor fit]

Question: For `NC(=O)N/N=C/c1sc(N2CCCCC2)nc1-c1cccs1`, which Potency is on record?
Answer: inconclusive: 44.7 µM [inhibitor, partial curve]

Question: How did the Potency turn out when `CCN(CC(=O)Nc1c(F)cccc1F)C(=O)CCCc1c[nH]c2ccccc12` was run?
Answer: inconclusive: 63.1 µM [inhibitor, partial curve, poor fit]

Question: For `CS(=O)(=O)NCc1nnc(SCc2c(F)cccc2Cl)o1`, which Potency is on record?
Answer: inconclusive: 50.1 µM [inhibitor, partial curve]

Question: Which Potency does the source give for `Cc1cc(NC(=O)CCN2CCN(Cc3ccccc3)CC2)ccc1Br` here?
Answer: inactive

Question: How did the Potency turn out when `S=c1nc(C2CCCCC2)[nH][nH]1` was run?
Answer: active: 5.01 µM

Question: How did the Potency turn out when `Cc1ccc(Nc2nc(CSc3nnc(-c4ccncc4)n3C)cs2)cc1` was run?
Answer: inactive

Question: For `Cn1nc([N+](=O)[O-])c2c(-c3nc4ccccc4s3)c(N)n(C3CCCCC3)c2c1=O`, which Potency is on record?
Answer: inconclusive: 3.55 µM [inhibitor, full curve, poor fit]

Question: `CC(C)(C)c1ccc(-c2ncccc2O)cc1` was tested. Which Potency did it give?
Answer: inconclusive: 39.8 µM [inhibitor, partial curve]

Question: `Cc1ccc(/C=C2\SC(=S)N(C3CCS(=O)(=O)C3)C2=O)o1` (stereo not drawn) was tested. Which Potency did it give?
Answer: inconclusive: 44.7 µM [inhibitor, single point]

Question: `O=c1c2ccccc2n(Cc2ccccc2Cl)c(=O)n1CCc1ccccc1` was tested. Which Potency did it give?
Answer: inactive

Question: How did the Potency turn out when `COc1cccc(/C=C2\SC(=S)N(CCC(=O)N3CCCCC3CCO)C2=O)c1` (stereo not drawn) was run?
Answer: inconclusive: 31.6 µM [inhibitor, partial curve]

Question: Which Potency does the source give for `COCCCN1C(=O)C(O)=C(C(=O)c2ccco2)C1c1cccc(Br)c1` (stereo not drawn) here?
Answer: inconclusive: 89.1 µM [inhibitor, single point]

Question: For `ON(CCc1ccccn1)CCc1ccccn1`, which Potency is on record?
Answer: active: 14.1 µM

Question: Which Potency does the source give for `CCN1CCN(Cc2ccc(NC(=O)c3cc(NC(=O)c4cc(-c5ccc(OC)cc5)n[nH]4)cc(OC)c3)cc2C(F)(F)F)CC1` here?
Answer: inconclusive: 39.8 µM [inhibitor, partial curve]

Question: How did the Potency turn out when `CCCn1c(C(C)Nc2nc(-c3cccc(Br)c3)cs2)nc2ccccc21` (stereo not drawn) was run?
Answer: inconclusive: 28.2 µM [inhibitor, full curve, poor fit]

Question: Which Potency does the source give for `Cc1ccc(-c2cc(-c3ccccc3)nc(N/N=C/c3cccnc3)n2)cc1` here?
Answer: inconclusive: 44.7 µM [inhibitor, partial curve]

Question: Which Potency does the source give for `CN(Cc1nccs1)C(=O)CC1C(=O)NCCN1Cc1ccc(-c2ccccc2)cc1` (stereo not drawn) here?
Answer: inconclusive: 39.8 µM [inhibitor, full curve, poor fit]

Question: For `CCOC(=O)C1(C)C(C(=O)OC)=C(c2ccc(OC)cc2)c2ccccc2N1C(=O)OC` (stereo not drawn), which Potency is on record?
Answer: inactive

Question: With `C/C=C\C(=O)Nc1cccc(C2=NOC3(C2)C[C@@H](C(N)=O)N(C(=O)CC(c2ccccc2)c2ccccc2)C3)c1` (stereo partly drawn) as the molecule, how does the Potency read?
Answer: inconclusive: 50.1 µM [inhibitor, partial curve]

Question: How did the Potency turn out when `OCCC1CN(Cc2c(O)ccc3ccccc23)CCN1CCc1ccccc1` (stereo not drawn) was run?
Answer: inconclusive: 79.4 µM [inhibitor, partial curve]

Question: How did the Potency turn out when `Cc1ccc(-c2nc(C#N)c(N3CCC(C)CC3)o2)cc1` was run?
Answer: inconclusive: 50.1 µM [inhibitor, partial curve]

Question: How did the Potency turn out when `CS(=O)(=O)c1ccc(C(=O)Nc2ccccc2Cl)cc1` was run?
Answer: inactive

Question: With `O=C(CSc1nc2c(sc3ccccc32)c(=O)n1CCCN1CCCC1)NCc1ccccc1` as the molecule, how does the Potency read?
Answer: inconclusive: 39.8 µM [inhibitor, full curve, poor fit]

Question: With `CCN(CC)P(=O)(Nc1ccc(C)cc1Br)c1ccc(N(C)C)cc1NC(=O)c1ccco1` (stereo not drawn) as the molecule, how does the Potency read?
Answer: active: 39.8 µM

Question: Which Potency does the source give for `CC1=CC(C)(C)Nc2ccc(Cc3ccc4c(c3)C(C)=CC(C)(C)N4)cc21` here?
Answer: active: 17.8 µM

Question: How did the Potency turn out when `COc1cc(-c2nc3ccc4ccccc4c3c3c2CCC3)ccc1O` was run?
Answer: inconclusive: 28.2 µM [inhibitor, full curve]

Question: With `Cc1ccc(NC(=O)c2cccc(N3C(=O)C4C5C=CC(C5)C4C3=O)c2)cc1C` (stereo not drawn) as the molecule, how does the Potency read?
Answer: inactive

Question: How did the Potency turn out when `COc1ccc(OC)c(-c2nnc3n2N=C(c2ccc(OC)c(OC4CCCC4)c2)CS3)c1` was run?
Answer: inconclusive: 17.8 µM [inhibitor, full curve]

Question: Which Potency does the source give for `COc1ccc(NC(=O)c2c(NCc3sccc3C)sc3c2CCCC3)c(OC)c1` here?
Answer: inconclusive: 35.5 µM [inhibitor, partial curve]

Question: With `O=C(Nc1ccc(Nc2ccccc2)cc1)C1CC1` as the molecule, how does the Potency read?
Answer: inconclusive: 79.4 µM [inhibitor, single point]

Question: Which Potency does the source give for `CC(=O)C(Sc1nccc(-c2cccs2)n1)C(C)=O` here?
Answer: inconclusive: 39.8 µM [inhibitor, partial curve]

Question: For `C#CCOCCOCCOCCNc1nc(N2CCN(C(=O)C(Cc3ccc(O)cc3)n3cc(C(N)CC(C)C)nn3)CC2)nc(N2CCN(C(=O)C(Cc3ccc(O)cc3)n3cc(C(N)C(C)CC)nn3)CC2)n1` (stereo not drawn), which Potency is on record?
Answer: active: 50.1 µM

Question: Which Potency does the source give for `O=c1[nH]c(=S)[nH]cc1Oc1ccc(Cl)cc1` here?
Answer: inconclusive: 3.98 µM [inhibitor, single point]

Question: How did the Potency turn out when `C/C(=N\NC(=O)c1cc(-c2cccc([N+](=O)[O-])c2)n[nH]1)c1ccccc1O` was run?
Answer: active: 14.1 µM

Question: For `CC(C)c1ccc(OC(=O)c2cccc(S(=O)(=O)N3CCN(C)CC3)c2)cc1`, which Potency is on record?
Answer: inconclusive: 25.1 µM [inhibitor, full curve]

Question: For `CN(C(=O)CSc1nnc(-c2ccc(F)cc2)n1C)C1CCS(=O)(=O)C1` (stereo not drawn), which Potency is on record?
Answer: inactive

Question: For `CC1Cc2ccccc2N1C(=O)c1ccc(N2CCCC2)c([N+](=O)[O-])c1` (stereo not drawn), which Potency is on record?
Answer: active: 44.7 µM

Question: With `CC1(C)CC(NC(=O)c2ccccn2)CC(C)(C)N1O` as the molecule, how does the Potency read?
Answer: inconclusive: 44.7 µM [inhibitor, partial curve]

Question: Which Potency does the source give for `COC(=O)c1cc(=O)n(-c2ccccc2)c(=Nc2ccccc2)s1` here?
Answer: inconclusive: 56.2 µM [inhibitor, partial curve]

Question: How did the Potency turn out when `CCC(c1nnc(SCC(=O)Nc2cc(C)on2)o1)N(C)C` (stereo not drawn) was run?
Answer: inconclusive: 89.1 µM [inhibitor, partial curve]

Question: How did the Potency turn out when `CSc1nc(S(=O)(=O)c2ccccc2)c(Cl)s1` was run?
Answer: inactive

Question: `Cc1ccc(-c2nn(CC(=O)NN3CCOCC3)c(=O)c3ccccc23)cc1` was tested. Which Potency did it give?
Answer: inactive

Question: With `CCOC(=O)/C=C1\NC(C)(C)Cc2cc(OC)c(O)cc21` as the molecule, how does the Potency read?
Answer: inconclusive: 56.2 µM [inhibitor, partial curve]

Question: With `O=C(O)c1cccc(N/N=C(\N=Nc2ccccc2)c2ccccc2)c1` as the molecule, how does the Potency read?
Answer: active: 39.8 µM

Question: For `CC1Cc2cc(/C(O)=C3/C(=O)C(=O)N(Cc4ccncc4)C3c3ccc(N(C)C)cc3)ccc2O1` (stereo not drawn), which Potency is on record?
Answer: inconclusive: 70.8 µM [inhibitor, partial curve]

Question: Which Potency does the source give for `CC1CCN(C(=O)CNC(=O)CNC(=O)Cc2ccccc2)CC1` here?
Answer: inactive

Question: With `O=C(/C=C/c1ccc(Br)cc1)NC(=S)Nc1ccc(S(=O)(=O)Nc2nccs2)cc1` as the molecule, how does the Potency read?
Answer: inconclusive: 2.82 µM [inhibitor, full curve]

Question: With `CCN1CCN(CCNC(=O)c2ccc3nc(-c4cccc(C)c4)c(-c4cccc(C)c4)nc3c2)CC1` as the molecule, how does the Potency read?
Answer: inconclusive: 28.2 µM [inhibitor, partial curve]

Question: Which Potency does the source give for `COc1ccc(N2C(=O)CC(Sc3nc4ccccc4s3)C2=O)cc1` (stereo not drawn) here?
Answer: inactive

Question: How did the Potency turn out when `COc1ccccc1NC(=O)CCC(=O)Nc1cc(OC)c(NC(=O)c2cccs2)cc1OC` was run?
Answer: active: 79.4 µM
